The values that follow come from paper PMC12322260, “Anticancer activity of triterpene glycosides from the sea star Solaster pacificus” (Scientific Reports, 2025).

Where “and” joins values, the source holds several entries; their conditions need not be identical. Identical values can stand only once.

In series [1] the test system is PC3-DR cells. The settings on record: TQD 50 nM.
The test system of series [2] is 22Rv1 cells. In words: Drug combination MTT assay, SynergyFinder ZIP analysis. Particulars: 22Rv1, 48 h. It is filed as cell-based, human. On the procedure:
(§1) Fig. 5 Effects of CuC1 in combination with taxanes and platinum agents. PC3-DR and 22Rv1 cells were co-treated with cisplatin (Cis), carboplatin (Carbo), docetaxel (Doce), or cabazitaxel (Caba) in combination with CuC1 at the indicated concentrations for 48 h. Cellular viability was evaluated using the MTT assay (number of biological replicates n = 3.) and is represented in the Supplementary Table S2. The cytotoxic effects were further analyzed, and 3D heat maps were constructed using SynergyFinder 3.0 software. The drug effects in combination (synergistic, additive, or antagonistic) were analyzed and visualized using the ZIP algorithm and are indicated by δ-score. δ > 10: Synergistic interactions (dark red area); […]: additive effect; δ < − 10: Antagonistic interactions (dark green area). A ZIP synergy score represents a mean δ overall the concentration range used.
(§2) The effect of combinational treatment with established chemotherapies was evaluated as previously reported^54. In brief, cells were exposed to individual drugs of their combinations for 48 h, and the viability was measured by MTT assay and was then analyzed using SynergyFinder 3.0 software (https://synergyfinder.fimm.fi) and the ZIP score algorithm. Statistical analysis was conducted automatically by the software using its inbuilt algorythms based on the input data type and size.
(Formazan colour is commonly taken as a measure of viable cells.)

Series [3] relates to PC3-DR cells. The series is described as above. The class given is cell-based, human. Particulars: 48 h. Here is the method: as §1, §2
The next series has as its system VCaP cells. In words: MTT cytotoxicity assay. The class given is cell-based. Particulars: Homo sapiens, 48 h, mean ± SD. An excerpt: (§3) The cell lines were purchased from ATCC (Manassas, VA, USA) or ECACC (Salisbury, UK). The following cell lines were used: Human prostate cancer cells LNCaP (ATCC; RRID:CVCL_0395), VCaP (ECACC; RRID:CVCL_2235), 22Rv1 (ATCC; RRID:CVCL_1045), PC3 (ATCC; RRID:CVCL_0035), and DU145 (ATCC; RRID:CVCL_0105); human prostate non-cancer cells PNT2 (ATCC; RRID:CVCL_2164) and RWPE-01 (ATCC; RRID:CVCL_3791). Human non-cancer embryonic kidney cells HEK293T (ECACC; RRID:CVCL_0063) and human fibroblast cells MRC-9 (ECACC; RRID:CVCL_2629). The docetaxel-resistant cells PC3-DR were generated by long-term treatment of human prostate cancer PC3 cells with sublethal concentrations of docetaxel as previously described[32] and were provided by Prof. Z. Culig (Innsbruck Medical University, Austria). All cell lines were recently authenticated by a commercial service (Multiplexion GmbH, Heidelberg, Germany) and were cultured as previously described[58],[59]. Cells were kept in culture for a maximum of three months and were routinely examined for bacterial, fungal, and mycoplasma infections.

Another series concerns MRC-9 cells. In words: MTT cytotoxicity assay. The settings on record: Homo sapiens, MRC9; MRC-9, 48 h, mean ± SD. The class given is cell-based.
From the text: as §3

Another series deals with LNCaP cells. The series is described as follows: MTT cytotoxicity assay. It is filed as cell-based. Particulars: Homo sapiens, 48 h, mean ± SD.
From the text: as §3

In series [4] the test system is 22Rv1 cells. The series is described as follows: MTT cytotoxicity assay. Particulars: Homo sapiens; 22Rv1, 48 h, mean ± SD. It is filed as cell-based.
From the text: as §3

The test system of a further series is RWPE-1 cells. The series is described as follows: MTT cytotoxicity assay. The class given is cell-based. Particulars: Homo sapiens; RWPE-1, 48 h, mean ± SD.
From the text: as §3

Another series concerns PNT2 cells. In words: MTT cytotoxicity assay. It is filed as cell-based. Particulars: Homo sapiens; PNT2, 48 h, mean ± SD.
From the text: as §3

The subject of another series is DU145 cells. The series is described as follows: MTT cytotoxicity assay. The class given is cell-based. Particulars: Homo sapiens, DU-145; DU145, 48 h, mean ± SD.
From the text: as §3

For series [5], the system named is PC3-DR cells. The series is described as follows: MTT cytotoxicity assay. It is filed as cell-based, human. The settings on record: for IC50: Homo sapiens, PC3-DR, 48 h, mean ± SD.
From the text: as §3

The target in series [6] is P-glycoprotein (P-gp) in PC3-DR cells (Homo sapiens, UniProt P08183). In words: P-gp activity, calcein-AM assay. Particulars: 30 min, glycosides at non-cytotoxic concentrations, controls TQD 50 nM, Doce 100 nM. The source says:
A major contributor to docetaxel resistance is P-glycoprotein (also known as P-gp, MDR1), known to be overexpressed in PC3-DR cells. P-glycoprotein is a molecular efflux pump that actively expels various xenobiotic agents, including docetaxel, from cancer cells. Increased P-gp expression correlates with an increased IC50 for docetaxel, signifying enhanced drug resistance. […] In this assay, the non-fluorescent calcein-AM passively diffuses into cells, where it is hydrolyzed by cellular esterases into fluorescent calcein. Both calcein and its precursor are P-gp substrates and are actively transported out of P-gp-highly expressing cells (e.g. PC3-DR cells), which results in reduced intracellular fluorescence. P-gp inhibitors, such as tariquidar, block P-gp function, leading to calcein accumulation and an increase in fluorescence, which therefore can be used as a reliable indicator of reduced P-gp activity. A similar fluorescence increase is observed in the presence of docetaxel due to its competitive binding to the P-gp transporter alongside calcein[38].
Number of biological replicates n = 3. […] Number of biological replicates n = 3.
The evaluation of the activity of P-glycoprotein (P-gp) was performed using calcein-AM assay as described previously. […] The plates were incubated for 15 min, and the green calcein fluorescence was recorded using an Infinite F200PRO plate reader (TECAN). […]

Another series concerns PC3 cells. In words: MTT cytotoxicity assay. The class given is cell-based. Particulars: Homo sapiens, PC-3; PC3, 48 h, mean ± SD.
From the text: as §3

A further series has as its system HEK293T cells. In words: MTT cytotoxicity assay. Particulars: Homo sapiens, HEK-293T, 48 h, mean ± SD. The class given is cell-based.
From the text: as §3

The test system of series [7] is HT-29, RPMI-7951, and MDA-MB-231 cells. Also on record: method as in PMID 33799442. Particulars: nontoxic concentrations; cited from earlier work.

Sequence of UniProt P08183 (P08183 whole entry): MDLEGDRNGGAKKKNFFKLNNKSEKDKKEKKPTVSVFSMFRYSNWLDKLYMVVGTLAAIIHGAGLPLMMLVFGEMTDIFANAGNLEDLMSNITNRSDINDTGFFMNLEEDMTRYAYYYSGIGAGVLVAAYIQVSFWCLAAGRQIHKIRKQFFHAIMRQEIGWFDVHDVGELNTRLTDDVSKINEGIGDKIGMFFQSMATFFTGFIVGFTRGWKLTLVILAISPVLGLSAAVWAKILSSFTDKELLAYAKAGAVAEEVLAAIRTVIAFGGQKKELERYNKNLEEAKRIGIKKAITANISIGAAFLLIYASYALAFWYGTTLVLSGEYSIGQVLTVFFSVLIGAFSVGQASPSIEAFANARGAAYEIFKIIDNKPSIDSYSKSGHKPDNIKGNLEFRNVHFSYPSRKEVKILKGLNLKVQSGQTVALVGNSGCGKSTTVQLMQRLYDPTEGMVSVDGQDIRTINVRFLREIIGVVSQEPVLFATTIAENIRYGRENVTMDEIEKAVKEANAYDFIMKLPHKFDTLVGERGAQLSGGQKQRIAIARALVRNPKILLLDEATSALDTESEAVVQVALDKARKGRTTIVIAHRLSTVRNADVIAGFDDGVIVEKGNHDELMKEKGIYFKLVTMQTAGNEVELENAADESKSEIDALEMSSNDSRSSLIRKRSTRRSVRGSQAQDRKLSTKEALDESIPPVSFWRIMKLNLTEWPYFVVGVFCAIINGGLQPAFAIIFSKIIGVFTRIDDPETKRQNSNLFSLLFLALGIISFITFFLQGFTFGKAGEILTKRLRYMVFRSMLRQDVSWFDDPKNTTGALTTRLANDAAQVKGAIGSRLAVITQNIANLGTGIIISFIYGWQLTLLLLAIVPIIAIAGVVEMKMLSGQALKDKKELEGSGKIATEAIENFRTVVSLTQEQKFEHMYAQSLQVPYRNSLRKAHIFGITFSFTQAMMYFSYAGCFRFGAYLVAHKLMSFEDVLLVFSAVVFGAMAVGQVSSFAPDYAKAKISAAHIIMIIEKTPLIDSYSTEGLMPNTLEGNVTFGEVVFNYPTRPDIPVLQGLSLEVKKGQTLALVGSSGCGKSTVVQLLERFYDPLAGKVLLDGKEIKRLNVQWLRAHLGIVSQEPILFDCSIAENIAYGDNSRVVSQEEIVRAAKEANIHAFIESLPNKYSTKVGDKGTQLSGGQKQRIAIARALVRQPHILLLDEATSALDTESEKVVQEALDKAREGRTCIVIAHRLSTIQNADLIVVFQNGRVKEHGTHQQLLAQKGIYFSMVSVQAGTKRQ

As a reminder, the IC50 is the concentration at which inhibition is half-maximal. As for `CC(=O)O[C@@]12CO[C@@H]1C[C@H](O)[C@@]1(C)C(=O)[C@H](O)C3=C(C)[C@@H](OC(=O)[C@H](O)[C@@H](NC(=O)OC(C)(C)C)c4ccccc4)C[C@@](O)([C@@H](OC(=O)c4ccccc4)[C@H]21)C3(C)C` [Doce, docetaxel], in the series with PC3-DR cells [1], the “decrease of IC50 on co-treatment with tariquidar” value was 30 fold. In addition, the “Response (% of effect)” value in the series with 22Rv1 cells [2] (Doce 0.5 nM alone) was 14.55% and 11.17%; in the series with 22Rv1 cells [2] (Doce 1 nM alone) it was 20.93% and 17.4913%; in the series with 22Rv1 cells [2] (Doce 2 nM alone) it was 33.11% and 25.97%; in the series on PC3-DR cells [3] (Doce 100 nM alone) it was 18.69% and 23.63%; in the series on PC3-DR cells [3] (Doce 200 nM alone), 29.98% and 33.41%; in the series with PC3-DR cells [3] (Doce 400 nM alone), 46.2% and 54.53%. Also, the “Response (% of effect)” value in the series with PC3-DR cells [3] (Doce 800 nM alone) is 69.53% and 74.92%. Also, the IC50 is 0.225 ± 0.215 nM with VCaP cells; more than 500 nM in the series with MRC-9 cells; 5.06 ± 0.58 nM with LNCaP cells; 0.604 ± 0.122 nM in the series with 22Rv1 cells [4]; 0.423 ± 0.225 nM in the series on RWPE-1 cells; more than 500 nM with PNT2 cells. Moreover, the IC50 worked out at 2.2 ± 0.61 nM in the series with DU145 cells and 388 ± 49.5 nM with PC3-DR cells [5]. In addition, the “reduced sensitivity (resistance) of PC3-DR compared to parental PC3 cells” value in the series with PC3-DR cells [5] (IC50 PC3-DR vs PC3, 48 h) is on record as 35 fold. For the same compound, the “P-gp activity (calcein-AM efflux)” value in [6] is reported as “affected P-gp activity”.
As to `CO[C@@H]1[C@@H](O)[C@H](O[C@@H]2[C@@H](O)[C@H](O[C@H]3[C@H](O)[C@@H](O[C@@H]4OC[C@@H](O)[C@H](O)[C@H]4O)[C@H](O[C@H]4[C@H](O[C@H]5CC[C@]6(C)[C@@H]7CCC89C(=O)O[C@@](C)(CCC=C(C)C)[C@H]8[C@@H](OC(C)=O)C[C@@]9(C)C7=CC[C@H]6C5(C)C)OC[C@@H](O)[C@@H]4O)O[C@@H]3C)O[C@H](CO)[C@H]2O)OC[C@H]1O` (stereo partly shown) [PaC, pacificusoside C], the IC50 in the series on PC3 cells was 5680 ± 320 nM; with VCaP cells, 1860 ± 120 nM; in the series on HEK293T cells, 2850 ± 130 nM; in the series with MRC-9 cells, 2110 ± 270 nM; in the series with LNCaP cells, 8240 ± 1070 nM; in the series on 22Rv1 cells [4] it was 1160 ± 70 nM. Also, the IC50 was determined as 4500 ± 230 nM with RWPE-1 cells, 3030 ± 240 nM in the series with PNT2 cells, 15500 ± 2130 nM in the series on DU145 cells and 13600 ± 4220 nM in the series with PC3-DR cells [5]. Also, the colony formation result in series [7] is recorded as “strongly suppressed the colony formation”.
With `CO[C@@H]1[C@@H](O)[C@H](O[C@@H]2[C@@H](O)[C@H](O[C@H]3[C@H](O)[C@@H](O[C@@H]4OC[C@@H](O)[C@H](O)[C@H]4O)[C@H](O[C@H]4[C@H](O[C@H]5CC[C@]6(C)[C@@H]7CCC89C(=O)O[C@@](C)(/C=C/C=C(C)C)[C@H]8[C@@H](OC(C)=O)C[C@@]9(C)C7=CC[C@H]6C5(C)C)OC[C@@H](O)[C@@H]4O)O[C@@H]3C)O[C@H](CO)[C@H]2O)OC[C@H]1O` (stereo partly shown) [CuC2, cucumarioside C2], the IC50 in the series on PC3 cells is 2210 ± 140 nM; in the series with VCaP cells, 487 ± 42 nM; with HEK293T cells, 1590 ± 100 nM; in the series with MRC-9 cells, 799 ± 62 nM; with LNCaP cells, 2180 ± 190 nM; with 22Rv1 cells [4], 623 ± 35 nM. Besides, the IC50 in the series with RWPE-1 cells turned out to be 897 ± 66 nM; in the series on PNT2 cells, 1270 ± 54 nM; in the series with DU145 cells, 2690 ± 190 nM; in the series on PC3-DR cells [5] it was 6200 ± 1470 nM. For the same compound, in series [7], the colony formation entry is on record as “strongly suppressed the colony formation”.
